The values that follow come from the supplement of paper PMC6206098.

± gives the uncertainty stated by the source. Shown are siRNA guide strands that differ only in the seed, positions 2 to 7.

The subject of one data set is HeyA8. The data set is described as follows: cell viability relative to lipid-only control; higher = less toxic. As to conditions: concentration: 10 nM; 96 h; Homo sapiens. The procedure:
(§1)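 Arrayed screen of 4096 siRNA duplexes, each carrying one of all possible 6mer seeds at guide-strand positions 2-7 in a fixed neutral 19mer scaffold (constant flanks: U at position 1, then ACAUGUAAACCA, plus a 3' AA overhang). The passenger strand is 2'-O-methylated at positions 1-2 so only the guide strand loads into RISC. Duplexes were reverse-transfected at 10 nM with RNAiMAX in triplicate in 384-well plates; viability was read by CellTiter-Glo ATP content 96 h after transfection. Values are % viability normalised to lipid-only wells (HeyA8, H460, M565) or to siNT1 (3LL).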

Another data set deals with H460. The data set is described as above. As to conditions: concentration: 10 nM; 96 h; Homo sapiens. The procedure:
as §1

The test system of the next data set is M565. The data set is described as above. As to conditions: concentration: 10 nM; 96 h; Mus musculus. As for the experimental part: as §1
Another data set has as its system 3LL. The data set is described as follows: cell viability relative to siNT1 control; HeyA8 human ovarian and H460 human lung cancer; M565 mouse liver and 3LL mouse lung cancer; siNT1 is a non-toxic control siRNA; higher = less toxic. The settings on record: concentration: 10 nM; 96 h; Mus musculus. As for the experimental part: as §1
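Throughout, for cell viability relative to lipid-only control: reverse lipid transfection in 384-well plates, in triplicate, of duplexes on a non-toxic 19mer backbone with passenger strand 2′-O-methylated at positions 1 and 2, luminescence viability read-out.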
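Throughout, for cell viability relative to siNT1 control: Luminescence-based viability of cells reverse transfected in 384-well plates with lipid-complexed siRNAs built on a non-toxic 19mer backbone whose passenger strand carries 2′-O-methyl groups at positions 1 and 2, triplicates.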

As usually defined, the cell viability is a read-out of living cells in per cent, often relative to untreated cells. Regarding UUAAAUUACAUGUAAACCAAA, the cell viability with HeyA8 was determined as 89.6 ± 7.5%; in the data set with H460 it was 75.3 ± 17%; in the data set on M565, 108 ± 2.9%; in the data set on 3LL, 89.8 ± 4.2%.

Turning to UAGAGUAACAUGUAAACCAAA, the cell viability in the data set on HeyA8 was determined as 87.5 ± 5.2%; with H460 it was 99.3 ± 24%; in the data set on M565, 59.6 ± 2.5%; in the data set with 3LL, 81.5 ± 4.7%.

Take UGCGUCGACAUGUAAACCAAA: the cell viability came to 72.4 ± 6.5% in the data set on HeyA8, 66 ± 4.6% in the data set on H460, 47.3 ± 0.77% in the data set with M565 and 66.3 ± 14% in the data set with 3LL.

In the case of UAUAGAGACAUGUAAACCAAA, the cell viability in the data set with HeyA8 came out at 106 ± 1.7%; with H460, 74.4 ± 8.4%; in the data set on M565, 101 ± 14%; in the data set on 3LL, 122 ± 16%.

As for UUCGACGACAUGUAAACCAAA, the cell viability in the data set on HeyA8 was determined as 99.5 ± 14%; in the data set with H460, 66.2 ± 7.2%; in the data set with M565 it was 76 ± 11%; with 3LL, 105 ± 21%.

Turning to UUCAAGAACAUGUAAACCAAA, the cell viability was 84.6 ± 10% with HeyA8, 65.5 ± 2.5% in the data set with H460, 35.5 ± 2% with M565 and 76.7 ± 19% with 3LL.

As for UAGGCUCACAUGUAAACCAAA, the cell viability amounted to 4.88 ± 0.93% with HeyA8, 34.1 ± 8.5% in the data set on H460, 7.31 ± 2.4% with M565 and 8.34 ± 3.5% with 3LL.

For UGGGCGCACAUGUAAACCAAA, the cell viability came out at 2.61 ± 0.7% with HeyA8, 17.8 ± 1.8% in the data set with H460, 22.7 ± 0.88% in the data set on M565 and 52.4 ± 12% in the data set on 3LL.

Take UCGAAGUACAUGUAAACCAAA: the cell viability in the data set on HeyA8 is 63.5 ± 8.7%; with H460, 60.2 ± 4.8%; in the data set on M565, 54.1 ± 5.3%; in the data set with 3LL, 83.8 ± 17%.

UCGUGCCACAUGUAAACCAAA: the cell viability amounted to 21.8 ± 3.5% with HeyA8, 38.1 ± 1.3% in the data set with H460, 25.7 ± 3.3% in the data set with M565 and 43.8 ± 10% with 3LL.

Take UUUCUGUACAUGUAAACCAAA: the cell viability is 69.2 ± 2.7% in the data set with HeyA8, 55.6 ± 7% in the data set on H460, 48.9 ± 3.6% in the data set on M565 and 22.2 ± 0.29% in the data set on 3LL.

UGUGUUUACAUGUAAACCAAA: the cell viability in the data set with HeyA8 was 33.8 ± 0.53%; in the data set on H460, 49.5 ± 11%; in the data set with M565, 18.1 ± 3.3%; with 3LL, 42.5 ± 3%.

As to UCACUUAACAUGUAAACCAAA, the cell viability in the data set with HeyA8 came to 91.5 ± 12%; in the data set on H460, 54.7 ± 8.6%; in the data set on M565, 74.7 ± 7.2%; in the data set with 3LL it was 104 ± 12%.

With UAGCGUUACAUGUAAACCAAA, the cell viability in the data set with HeyA8 came out at 77.2 ± 5.7%; in the data set on H460, 65.5 ± 7.5%; with M565, 74.8 ± 8.6%; in the data set with 3LL it was 96.5 ± 13%.

On to UUAAGUCACAUGUAAACCAAA, for which the cell viability with HeyA8 came to 59.4 ± 7.9%; in the data set on H460 it was 63.9 ± 5.5%; with M565, 28.5 ± 5.1%; in the data set on 3LL, 7.88 ± 3.9%.

On to UGAUAAUACAUGUAAACCAAA, for which the cell viability with HeyA8 stood at 30 ± 5.3%; with H460 it was 65.2 ± 8.1%; in the data set on M565, 87.4 ± 9.3%; in the data set with 3LL, 56 ± 21%.

Turning to UAUGUCAACAUGUAAACCAAA, the cell viability in the data set with HeyA8 worked out at 96.1 ± 7.9%; in the data set on H460, 64.6 ± 3.6%; in the data set with M565, 91.1 ± 21%; with 3LL, 94.3 ± 11%.

As to UAAACCAACAUGUAAACCAAA, the cell viability with HeyA8 was found to be 82.8 ± 16%; in the data set with H460, 62.8 ± 4.1%; in the data set with M565 it was 86.8 ± 9.1%; in the data set on 3LL, 80 ± 9.4%.

Take UUAACUUACAUGUAAACCAAA: the cell viability in the data set with HeyA8 came to 93.2 ± 3.9%; in the data set with H460, 76.4 ± 9.2%; in the data set with M565, 116 ± 15%; with 3LL it was 93.7 ± 10%.

As for UUACUGCACAUGUAAACCAAA, the cell viability in the data set on HeyA8 turned out to be 80.1 ± 2.3%; with H460, 82.9 ± 11%; in the data set on M565, 35.4 ± 8.5%; in the data set on 3LL, 35.5 ± 3.1%.

On to UUUGGUGACAUGUAAACCAAA, for which the cell viability came to 101 ± 1.9% in the data set with HeyA8, 77.44 ± 0.32% in the data set with H460, 79.7 ± 5.8% with M565 and 98.7 ± 5.5% in the data set on 3LL.

Turning to UUCUCCAACAUGUAAACCAAA, the cell viability was 87.9 ± 14% in the data set with HeyA8, 56 ± 12% in the data set on H460, 88.8 ± 6.7% in the data set with M565 and 78.9 ± 2.9% with 3LL.

Consider UAUAGUGACAUGUAAACCAAA, for which the cell viability worked out at 90.3 ± 2% with HeyA8, 81.8 ± 19% in the data set with H460, 75.9 ± 6% with M565 and 115 ± 6.8% with 3LL.

For the sequence UCUGUUCACAUGUAAACCAAA, the cell viability in the data set with HeyA8 turned out to be 62.5 ± 4.8%; in the data set with H460, 56.2 ± 9.2%; with M565, 34.6 ± 4.2%; with 3LL, 98 ± 12%.

As for UUCUUCUACAUGUAAACCAAA, the cell viability in the data set with HeyA8 turned out to be 45.6 ± 2.4%; with H460 it was 38 ± 0.89%; with M565, 106 ± 21%; with 3LL, 69.2 ± 9.2%.

Take UUUACAUACAUGUAAACCAAA: the cell viability with HeyA8 was determined as 99.4 ± 1.8%; in the data set on H460 it was 80.1 ± 9.2%; with M565, 92.2 ± 2.8%; in the data set with 3LL, 104 ± 6.2%.

Take UCAGGUUACAUGUAAACCAAA: the cell viability in the data set with HeyA8 was determined as 76.7 ± 5%; with H460, 56.2 ± 12%; in the data set with M565 it was 52.4 ± 5.9%; in the data set on 3LL, 102 ± 12%.

Take UAGAUCAACAUGUAAACCAAA: the cell viability with HeyA8 amounted to 78.6 ± 16%; in the data set on H460 it was 68.3 ± 7.9%; in the data set on M565 it was 54.8 ± 3.3%; in the data set with 3LL it was 83.6 ± 7.4%.

On to UACCCUUACAUGUAAACCAAA, for which the cell viability in the data set on HeyA8 was found to be 63.5 ± 4.7%; in the data set with H460, 66.2 ± 7.3%; with M565, 79.4 ± 8%; with 3LL it was 90.9 ± 3.5%.
